Paper PMC4336329 (PLoS ONE, 2015)
About 14,000 (4.5%) of roughly 310,000 compounds showed an effect of 50% or more. The effect is printed as a negative number. Some of the results follow.

Target: human ether-à-go-go-related gene (hERG) potassium channel (human, UniProt Q12809)
Assay: primary screen, population patch clamp on CHO cells stably expressing hERG
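Note: peak tail current of the secondary pulse compared with the same well before compound.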

human ether-à-go-go-related gene (hERG) potassium channel, sequence (Q12809 whole entry, looked up): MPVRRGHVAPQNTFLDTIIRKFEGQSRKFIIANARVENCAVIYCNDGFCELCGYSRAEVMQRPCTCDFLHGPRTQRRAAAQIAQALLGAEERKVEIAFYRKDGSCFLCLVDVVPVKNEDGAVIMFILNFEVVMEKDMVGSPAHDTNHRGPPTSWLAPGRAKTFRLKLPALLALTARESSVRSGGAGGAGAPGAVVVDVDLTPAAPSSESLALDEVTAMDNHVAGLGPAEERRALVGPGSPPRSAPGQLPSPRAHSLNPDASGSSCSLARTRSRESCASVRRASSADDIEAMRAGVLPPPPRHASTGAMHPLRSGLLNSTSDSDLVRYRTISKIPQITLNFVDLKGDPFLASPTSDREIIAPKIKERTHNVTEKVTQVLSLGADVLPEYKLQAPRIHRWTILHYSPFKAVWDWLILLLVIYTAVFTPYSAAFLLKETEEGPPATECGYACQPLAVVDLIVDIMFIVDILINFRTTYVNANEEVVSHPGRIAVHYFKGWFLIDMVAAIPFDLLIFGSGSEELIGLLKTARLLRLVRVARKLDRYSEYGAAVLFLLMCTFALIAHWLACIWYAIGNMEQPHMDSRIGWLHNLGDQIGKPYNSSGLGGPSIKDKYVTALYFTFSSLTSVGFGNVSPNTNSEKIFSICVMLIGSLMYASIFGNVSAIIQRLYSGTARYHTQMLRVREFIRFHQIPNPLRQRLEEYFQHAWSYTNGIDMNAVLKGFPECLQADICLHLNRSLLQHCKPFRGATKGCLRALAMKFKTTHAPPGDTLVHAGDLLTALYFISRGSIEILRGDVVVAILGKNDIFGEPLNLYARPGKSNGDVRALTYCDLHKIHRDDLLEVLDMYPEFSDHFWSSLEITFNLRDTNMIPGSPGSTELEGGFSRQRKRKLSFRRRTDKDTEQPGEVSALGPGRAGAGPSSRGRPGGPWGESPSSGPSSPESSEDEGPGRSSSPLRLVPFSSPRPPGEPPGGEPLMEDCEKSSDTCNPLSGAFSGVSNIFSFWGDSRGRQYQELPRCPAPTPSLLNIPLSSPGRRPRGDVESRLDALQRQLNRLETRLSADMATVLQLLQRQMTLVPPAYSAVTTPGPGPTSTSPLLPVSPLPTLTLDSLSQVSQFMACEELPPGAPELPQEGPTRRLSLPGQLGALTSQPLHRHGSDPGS

Row | SMILES | hERG current change (%, negative = inhibition) at 10uM [%]
1 | Cc1sc2c(c1C)c(=O)nc1scc(CC(=O)O)n12 | 7.48
2 | COc1cccc(OC)c1OCCCN1CCC(Cc2ccccc2)CC1.O=C(O)C(=O)O | -80.6
3 | Cc1c(Cl)cccc1NC(=S)N/N=C/c1ccccc1Cl | 12.2
4 | COc1ccc(-c2noc(CCCOc3ccc(Cl)cc3Cl)n2)cc1 | 12.9
5 | COc1ccc2c(c1)c(C(=O)O)c(C)n2CCc1ccc(OC)c(OC)c1 | 16.8
6 | CCOc1ccc(N2CC(C(=O)Nc3ccccn3)CC2=O)cc1 (stereo not shown) | -15.1
7 | O=C(CN1CCN(c2ccccn2)CC1)Nc1ccc(Br)cc1 | -57.7
8 | Fc1ccc(CN2CCCCCCC2)cc1F | -24
9 | CCOc1ncccc1C(=O)N(C)CC(=O)Nc1ccc(F)cc1 | 17.2
10 | CCN1C(=O)[C@H]2[C@@H](c3ccc(-c4ccc(F)cc4)cc3)N[C@@](Cc3ccccc3)(C(=O)OC)[C@H]2C1=O.O=C(O)C(F)(F)F | -2.53
11 | CCn1c(-c2cccnc2)n[nH]c1=S | 0.542
12 | CCc1cccc(NS(=O)(=O)c2ccc3c(c2)N(C)CCO3)c1 | -9.79
13 | CN(C1CCCCC1)S(=O)(=O)c1ccccc1 | -7.01
14 | CCN(CC)C(=O)CSc1nnc(-c2ccccc2)c(-c2ccccc2)n1 | -20.4
15 | COc1ccc(NC(=O)NCCCN2CCN(c3ccccc3F)CC2)cc1 | -63.6
16 | CC(C)NC(=O)COC(=O)c1ccc(Cl)c(S(N)(=O)=O)c1 | 18.6
17 | O=C(CN1C(=O)/C(=C/c2ccccc2)SC1=S)Nc1cccnc1 | 10.5
18 | CC1CCN(S(=O)(=O)c2ccc(C(=O)Nc3nnc(-c4ccco4)o3)cc2)CC1 | -12.4
19 | O=C(O)[C@H](Cc1ccccc1)NC(=O)N1CCN(c2ccccc2)CC1 | -0.139
20 | CCN(CC)C(=O)CSc1nc2ccccc2c(=O)n1OC(C)C | -11.3
21 | Cc1cc(C)cc(OCc2ccc(C(=O)NC3CCOC3=O)o2)c1 (stereo not shown) | 15.9
22 | N#Cc1c(N)sc2c1CCN(CCc1ccccc1)C2 | -50.5
23 | CC1CSc2nnc(CCc3ccccc3)n21 (stereo not shown) | 8.26

Row | SMILES | hERG current change (%, negative = inhibition) at 10uM [%]
24 | O=C(CSc1ncccn1)N1CCN(C(c2ccccc2)c2ccccc2)CC1 | -18.4
25 | Cc1noc(C)c1CSc1nnc(C)c(=O)[nH]1 | 7.14
26 | Fc1cccc(CSc2ccc3nnc(-c4cccnc4)n3n2)c1 | -69
27 | Cc1c(Br)c(C(F)(F)F)nn1CC(=O)NCc1ccco1 | 16.3
28 | Cc1ccc(O)c(C2=NNC(O)(C(F)(F)F)C2)c1 (stereo not shown) | 3.46
29 | CC1CN(Cc2nc3c(c(=O)n(C)c(=O)n3C)n2CCCO)CC(C)O1 (stereo not shown) | 2.33
30 | Cc1cc(C(F)(F)F)nn1CC(=O)N1CCCCC1C (stereo not shown) | 2.16
31 | CN(C)C(=O)CN(c1ccc2c(c1)OCO2)S(C)(=O)=O | 15.5
32 | CC(C)C(OC(=O)c1cccs1)C(=O)NCCc1ccccc1 (stereo not shown) | 1.64
33 | CCOC(=O)C1=C(CC)Nc2ccccc2N=C1NC(=O)c1cc(S(=O)(=O)N(C)C)ccc1Cl | 19.1
34 | CCOC(=O)Cc1c(C)nc2c(-c3ccc(OC)cc3)c(C)nn2c1C | -7
35 | Cc1cc(C)c2nc(-c3ccccn3)cc(C(=O)NCc3cc(C)n(C)n3)c2c1 | -28.9
36 | Cc1ccc2nc(Nc3nc(-c4ccccc4)cc(=O)[nH]3)nc(C)c2c1 | 15
37 | CCN1CCN(C(=O)/C=C/c2c(F)cccc2Cl)CC1 | -11.4
38 | O=C(O)c1sccc1S(=O)(=O)N1CCN(c2ccc(C(F)(F)F)cn2)CC1 | 9.39
39 | CN1CCN(C(=O)/C=C/c2ccc3c(c2)OCO3)CC1 | 0.246
40 | Cc1nn(Cc2cccc(F)c2)c(C)c1NC(=O)c1c(Cl)cnn1C | 6.8
41 | Cn1c(SCC(=O)c2ccc(F)cc2)nnc1-c1cccnc1 | 8.87
42 | O=C(N/N=C/c1ccccc1F)c1ccc(COc2ccccc2Cl)o1 | -10.9
43 | O=C(OCc1c(F)cccc1Cl)c1cc([N+](=O)[O-])ccc1N1CCOCC1 | 3.43
44 | Cc1cc(N(C)C)c(C#N)c(NCc2ccccc2)n1 | -1.98
45 | COC(=O)CCCn1nc(NC(=O)COc2ccc(F)cc2)cc1C | -5.47
46 | O=C(NC1CCCc2ccccc21)c1cn2ccccc2n1 (stereo not shown) | -25.5

Row | SMILES | hERG current change (%, negative = inhibition) at 10uM [%]
47 | CCNC(=O)C(=O)NCC1OCCCN1S(=O)(=O)c1cccs1 (stereo not shown) | 1.94
48 | COC(=O)Cn1ccc2cc(S(=O)(=O)N3CCCCCC3)ccc21 | 8.08
49 | COc1ccc(S(=O)(=O)/C(C#N)=C/Nc2ccccc2F)cc1 | -24.8
50 | COc1cc(OC)c(-n2cc(-c3ccc(Cl)cc3)[nH]c2=O)cc1Cl | 1.01
51 | CCCCCC(=O)N1CCN(S(=O)(=O)c2ccc3c(c2)OCCCO3)CC1 | -18.7
52 | Cc1nnc(SCCn2c(N3CCC(C)CC3)nc3c2c(=O)n(C)c(=O)n3C)s1 | -12.1
53 | CCC1CCCCN1C(=O)CSC1=NN2CCCC(=O)N=C2S1 (stereo not shown) | 18.2
54 | CCOc1ccc2nc(Cl)c(C3CC(c4ccco4)=NN3S(C)(=O)=O)cc2c1 (stereo not shown) | -41.1
55 | CC(=O)c1cccc(NC(=O)C2CCN(C(=O)c3cccs3)CC2)c1 | -23.5
56 | Cc1ccc(S(=O)(=O)NCCNC(=O)CN2CCOCC2)cc1 | 11.7
57 | O=C1c2ccccc2-c2onc3ccc(NCc4ccco4)c1c23 | 13.5
58 | O=c1oc2ccccc2c2c1SC(C(F)(F)F)C2 (stereo not shown) | -1.76
59 | O=[N+]([O-])c1c(Nc2ccc(Br)cc2)ccc2nonc12 | 10.2
60 | O=C(NCc1ccccc1)c1cnsn1 | 4.56
61 | Cc1cccc2sc(N(CCCN(C)C)C(=O)c3ccc4ncsc4c3)nc12 | -45
62 | CC(=O)Nc1cccc(/C(C)=N/NC(=O)c2ccc(O)cc2)c1 | -9.16
63 | Cc1cc(Cl)ccc1NC(=O)CN1CCC(C(O)(c2ccccc2)c2ccccc2)CC1 | 5.73
64 | COc1ccc([N+](=O)[O-])cc1NC1C2CC3CC(C2)CC1C3 (stereo not shown) | 18.4
65 | O=C(NCCc1ccccc1)C1CCN(C(=O)NCc2ccccc2)CC1 | 17.1
66 | Cc1ccc(NCc2ccc(O)c3ncccc23)cc1C | 19.9
67 | Cc1ccc(C(C(=O)NC(C)(C)C)N(C(=O)CCC(=O)Nc2ccccn2)c2ccccc2F)cc1 (stereo not shown) | -48.4
68 | Cc1c(OCC(=O)NCc2ccccn2)ccc2c(-c3ccccc3)cc(=O)oc12 | -7.1
69 | N#Cc1ccc(N2CCOCC2)c([N+](=O)[O-])c1 | -21.7

Row | SMILES | hERG current change (%, negative = inhibition) at 10uM [%]
70 | Cc1cccc2c(C(=O)n3cccn3)cc(-c3ccccc3Cl)nc12 | 8.89
71 | O=C(O)c1nn(-c2ccccc2-c2n[nH]c(=O)[nH]c2=O)c(=O)[nH]c1=O | 7.77
72 | Cc1cccc(NC(=S)N/C(=N/S(=O)(=O)c2ccccc2)c2ccccc2)c1 | 13
73 | COc1ccccc1/C=N/Nc1nccnc1Cl | -11.5
74 | COc1ccc(NC(=O)CS(=O)(=O)c2ccccc2Cl)cc1 | 21.2
75 | CCOc1ccc(Cl)cc1CSc1n[nH]c(C)n1 | 13.7
76 | N#Cc1cc2cc3c(cc2nc1SCC(=O)OC1CCCCC1)OCO3 | 13.5
77 | CC(=O)C1=C(C)OC(N)=C(C#N)C1c1ccncc1 (stereo not shown) | 4.17
78 | N#Cc1c(Cl)nc(-c2ccncc2)nc1-c1ccccc1 | 22.7
79 | CC(=O)c1ccc(NC(=S)NNC(=O)c2ccncc2)cc1 | 25.4
80 | Cc1sc2nc(CN3CCOCC3)nc(NS(=O)(=O)c3ccc4c(c3)OCCO4)c2c1C | 6.33
81 | COc1cc(C(=O)O)cc(NC(=O)c2ccco2)c1OC | 3.98
82 | O=C(CN1CCSc2ccccc21)NCCCc1ccccc1 | -10.6
83 | O=C(Nc1ccc([N+](=O)[O-])cc1)C1CC1(c1ccccc1)c1ccccc1 (stereo not shown) | 0.405
84 | COC(=O)c1cccc(NC(=O)COc2cccc([N+](=O)[O-])c2)c1 | 23.5
85 | CSc1nnc(-c2ccc(NC(N)=S)cc2)o1 | -3.06
86 | O=C(COC(=O)C1CC1)Nc1ccc2c(c1)OCO2 | 3.04
87 | O=C(C#Cc1ccccc1)Nc1ccc(F)cc1 | 10.1
88 | N#CCCSc1ccccc1NC(=O)c1cc(=O)c2ccccc2o1 | -10.3
89 | Cc1ccc(N(C)S(=O)(=O)c2cccc(C(=O)Nc3ccc(N4CCOCC4)cc3)c2)cc1 | -14
90 | COc1ccc(N2C(=NC(=O)C3CCCCC3)SC3CS(=O)(=O)CC32)cc1 (stereo not shown) | 20
91 | CCCn1c(NC(=O)C2CCN(C(=O)c3ccc(F)cc3)CC2)nc2ccccc21 | -47.6
